# Assay results published in publication PMC4336329 (PLoS ONE, 2015).
# About 2,200 (0.71%) of roughly 310,000 compounds showed an effect of 50% or more. Effects have a minus sign here. The list shows a part of the results.
# Molecular target: human ether-à-go-go-related gene (hERG) potassium channel (human, UniProt Q12809)
# Assay: primary screen, population patch clamp on CHO cells stably expressing hERG
# human ether-à-go-go-related gene (hERG) potassium channel, sequence (Q12809 whole entry, looked up): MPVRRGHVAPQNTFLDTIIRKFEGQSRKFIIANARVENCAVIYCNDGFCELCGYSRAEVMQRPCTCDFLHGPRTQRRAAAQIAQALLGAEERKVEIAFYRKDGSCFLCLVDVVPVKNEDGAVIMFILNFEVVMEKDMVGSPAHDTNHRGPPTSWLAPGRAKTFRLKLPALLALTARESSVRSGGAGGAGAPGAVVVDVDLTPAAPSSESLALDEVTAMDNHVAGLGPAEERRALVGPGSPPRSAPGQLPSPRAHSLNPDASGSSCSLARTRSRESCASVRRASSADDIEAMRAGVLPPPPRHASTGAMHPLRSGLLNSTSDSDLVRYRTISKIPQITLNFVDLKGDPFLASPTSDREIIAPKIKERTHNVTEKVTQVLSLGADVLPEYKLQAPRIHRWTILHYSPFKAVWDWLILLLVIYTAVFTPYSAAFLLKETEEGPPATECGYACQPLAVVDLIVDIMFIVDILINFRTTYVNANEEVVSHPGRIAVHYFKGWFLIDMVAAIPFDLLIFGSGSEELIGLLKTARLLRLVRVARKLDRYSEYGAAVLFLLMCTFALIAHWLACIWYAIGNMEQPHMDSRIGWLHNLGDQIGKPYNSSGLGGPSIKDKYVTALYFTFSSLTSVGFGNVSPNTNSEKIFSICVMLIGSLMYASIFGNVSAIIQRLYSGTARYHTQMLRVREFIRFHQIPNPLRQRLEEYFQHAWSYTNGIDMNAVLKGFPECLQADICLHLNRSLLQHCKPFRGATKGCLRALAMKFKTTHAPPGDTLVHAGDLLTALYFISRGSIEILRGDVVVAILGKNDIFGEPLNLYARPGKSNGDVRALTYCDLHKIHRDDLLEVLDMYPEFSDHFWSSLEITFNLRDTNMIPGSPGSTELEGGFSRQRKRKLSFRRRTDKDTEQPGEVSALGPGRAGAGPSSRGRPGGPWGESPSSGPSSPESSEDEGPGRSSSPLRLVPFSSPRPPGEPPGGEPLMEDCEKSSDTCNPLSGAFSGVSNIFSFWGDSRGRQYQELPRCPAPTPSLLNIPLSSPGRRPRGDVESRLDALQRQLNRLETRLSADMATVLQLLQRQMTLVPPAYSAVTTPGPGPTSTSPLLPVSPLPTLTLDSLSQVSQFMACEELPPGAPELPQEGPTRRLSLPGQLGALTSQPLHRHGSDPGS
row,Structure (SMILES),"hERG current change (%, negative = inhibition) at 1uM [%]"
1,CCN(CC(=O)Nc1c(F)cccc1F)C(=O)c1cc(S(=O)(=O)N(C)C)ccc1N1CCCC1,8.66
2,O=C(Nc1ccc(O)cc1C(=O)O)c1ccc2c(c1)C(=O)N(Cc1ccco1)C2=O,-7.57
3,c1cncc(CNc2ncnc3sccc23)c1,14
4,CCCn1c2c(c(=N)c3c1CCC3)CCCC2.I,6.36
5,Cc1ccc(-c2cc(C(F)(F)F)nn2-c2ccc(S(N)(=O)=O)cc2)cc1,13.8
6,CC12CCC(=O)N1C(C(=O)NCCc1ccc(F)cc1)CS2 (stereo not shown),15.5
7,CCC(CC)c1nnc(NC(=O)CSCC(=O)Nc2cc(C)on2)s1,12.8
8,CC(Oc1ccc(Br)cc1Br)C(=O)Nc1cccnc1Cl (stereo not shown),13.7
9,O=[N+]([O-])c1cccc(CSC2=NCCN2S(=O)(=O)c2ccccc2)c1,7.97
10,O=C(CSc1nnc(COc2ccc(Cl)cc2)n1Cc1ccco1)c1ccccc1F,11.8
11,O=C(CSc1ncnc2c1oc1ccccc12)NCc1ccc(F)cc1,13.4
12,COc1ccc(/C=C2\Oc3cc(OCC(=O)N4CCC(C(=O)O)CC4)ccc3C2=O)c(OC)c1OC,11.5
13,CCS(=O)(=O)c1ccc(O)c(NC(=O)COc2ccc(C)cc2)c1,5.5
14,COc1ccccc1N1CCN(C(=S)Nc2ccc3nc(N4CCOCC4)cc(C)c3c2)CC1,2.41
15,CCCc1[nH]n(-c2ccc(F)cc2)c(=O)c1C=Nc1cccc(F)c1,16.9
16,Nc1ccc(S(=O)(=O)Nc2nccs2)cc1,14.4
17,CN(C)CCC(Oc1ccccc1OCc1ccccc1)c1ccccc1.O=C(O)C(=O)O (stereo not shown),-7.34
18,COc1ccc(NC(C)=O)cc1NC(=O)c1cccc(C(F)(F)F)c1,11.4
19,COC(=O)C1=C(C)N(c2ccc(F)cc2)C(=O)C1,-7.72
20,Cl.Nc1cccc(Oc2c(F)c(F)c(Oc3cccc(N)c3)c(F)c2F)c1,13.1
21,O=C(CCS(=O)(=O)c1ccccc1)Nc1ccccc1N1CCOCC1,-1.59
22,CC1CC(C)CN(C(=O)C(C)N(C)CC(=O)Nc2ccc(F)cc2)C1 (stereo not shown),1.53

row,Structure (SMILES),"hERG current change (%, negative = inhibition) at 1uM [%]"
1,Cl.Oc1ccccc1Nc1nc(NCC2CCCO2)c2ccccc2n1 (stereo not shown),-8.48
2,Cc1cc(=O)[nH]c2ccc(S(=O)(=O)Nc3ccc(O)cc3)cc12,18.2
3,CCc1ccc(NC(=O)CSc2ccc(-c3cccnc3)nn2)cc1,-1.22
4,CCOC(=O)C1(Cc2ccccc2C(F)(F)F)CCN(C2CCC2)CC1,-20.3
5,COc1ccc(NC(=O)c2ccc(CN3CCc4ccccc4C3)cc2)cc1OC,15.6
6,O=c1c(-c2cccc(Cl)c2)c[nH]n1-c1ccccc1,17.6
7,CC(=O)c1sc(NC(=O)c2cc(-c3ccccc3)nn2-c2ccccc2)nc1C,9.74
8,Cc1c(Cl)cccc1N1C(=O)C(N2C(=O)c3cccc([N+](=O)[O-])c3C2=O)C1c1cccs1 (stereo not shown),8.07
9,Cc1ccc(C(=O)COC(=O)c2cc(=O)[nH]c3ccccc23)cc1C,15.6
10,CN(C)c1ccnc2sc3c(=O)n(Cc4ccccc4)cnc3c12,-19.5
11,CC(C)c1c(O)nc(SCC(=O)Nc2ccc3c(c2)CCC3)[nH]c1=O,4.86
12,COc1ccc(-c2nnn(CC(=O)N(CC3CCCO3)C(C(=O)NC(C)(C)C)c3ccco3)n2)cc1OC (stereo not shown),12.7
13,O=C1c2ccccc2N2C(=O)c3ccccc3C2N1Cc1ccccc1 (stereo not shown),-2.03
14,CN1C(=O)/C(=C/c2ccc(-c3ccccc3[N+](=O)[O-])o2)SC1=Nc1ccc(Cl)c(C(=O)O)c1,13.2
15,COc1ccc(CC(=O)NCc2cccs2)cc1,3.95
16,Cc1ccc(C(=O)N2CCc3ccccc3C2)cc1S(=O)(=O)N1CCOCC1,8.77
17,CC1CCN(C(=O)Cn2c(=O)n(CCCC(=O)NCc3ccco3)c(=O)c3sccc32)CC1,6.32
18,Cc1cc(C)c2cc(C#N)c(NCCCNC(=O)CCC(=O)O)nc2c1,9.04
19,O=C(O)/C(=C\c1ccc(Cl)cc1)c1ccc(S(=O)(=O)N2CCCC2)s1,-6.96
20,O=C(COc1ccccc1)NC(=S)Nc1ccc2c3c(cccc13)CC2,8.69
21,CN(c1ccccc1C(=O)Nc1ccc2c(c1)OCCO2)S(C)(=O)=O,-6.61
22,O=C1Nc2ccccc2C1(O)C/C(=N/O)c1ccccc1 (stereo not shown),13.5

row,Structure (SMILES),"hERG current change (%, negative = inhibition) at 1uM [%]"
1,CSCCC(NC(=O)c1ccccc1Br)C(=O)NCCCn1nc(C)cc1C (stereo not shown),1.59
2,CCOC(=O)C1=C(COC(=O)c2c(OC)cccc2OC)NC(=O)NC1C (stereo not shown),8.27
3,Cc1ccc(-c2cc(C(F)(F)F)n3ncc(C(=O)NCc4ccco4)c3n2)cc1,-7.58
4,O=C(O)CSc1nnc(-c2ccncc2)n1CCc1ccccc1,9.45
5,O=C(NCCN1CCNC1=O)C1CCC(=O)N(Cc2ccccc2F)C1 (stereo not shown),-1.3
6,CC1=C(C(=O)Nc2cccc(C(=O)NC3CCCCC3C)c2)SCCO1 (stereo not shown),4.75
7,COCCNC(=O)C1CCN(S(=O)(=O)N2CCC3(CC2)OCCO3)CC1,15.6
8,O=C(CC(c1ccccc1)c1ccco1)N1CCOCC1 (stereo not shown),3.02
9,CCOC(=O)c1c(CSc2ccc(CC)cc2)oc2ccc(O)c(CN(C)C)c12.Cl,8.79
10,O=C(Cn1c(=O)cnc2ccccc21)N1CCN(S(=O)(=O)c2ccccc2Br)CC1,36.9
11,CC(=O)Nc1ccc(-c2csc(NC(=O)CCCc3cccs3)n2)cc1,8.68
12,COc1cc([C@H]2[C@@H]3CCCC[C@]3(O)CCN2CC(=O)Nc2ccc(C)cc2C)ccc1O,12.1
13,Cc1[nH]c2ccccc2c1C(=O)CSc1nncn1C,8.79
14,O=C(O)CCCC(=O)Nc1ccc(N=Nc2ccccc2)cc1,10.8
15,COc1ccccc1OCc1ccc(C(=O)N/N=C/c2ccco2)cc1,12.6
16,O=C(NC(=S)Nc1ccc(Cl)c(C(=O)O)c1)c1ccc(OCc2ccccc2)cc1,12.5
17,COCCN(C(=O)COC(=O)Cc1cccc2ccccc12)c1c(N)n(Cc2ccccc2)c(=O)[nH]c1=O,-0.428
18,Cc1ccc(Nc2nc(N)[nH]c(=O)c2N=O)cc1,11.7
19,CC1=CC=CN2C1=NC(=O)CC2(C)C(=O)N(CC(=O)NC1CCCC1)c1ccccc1C (stereo not shown),10.2
20,CC(C)C(=O)NNC(=O)CSc1nnnn1C(C)C,10.8
21,CCOC(=O)c1ccc(NC(=O)c2cc(F)c(F)cc2Cl)cc1,-2.39
22,COCCN(C(=O)C1CC1)c1nnc(-c2ccc(C)cc2)s1,16.4

row,Structure (SMILES),"hERG current change (%, negative = inhibition) at 1uM [%]"
1,CC1Cc2ccccc2N1C(=O)COC(=O)c1ccc(Cl)c(S(=O)(=O)N2CCOCC2)c1 (stereo not shown),5.86
2,O=C(CN1C(=O)C2C3c4ccccc4C(c4ccccc43)C2C1=O)Nc1ccccc1C(=O)O (stereo not shown),10.3
3,Cc1nn(C)c(C)c1/C=C/C(=O)c1ccc(Cl)cc1Cl,9.04
4,O=C(Nc1ccc(Cl)cc1)c1ccc(S(=O)(=O)N2CCOCC2)cc1,11
5,OCCCn1c(C2CCCN2c2nc(-c3ccc(F)cc3)cs2)nc2cc(C(F)(F)F)ccc21 (stereo not shown),2.52
6,Cc1ccc(S(=O)(=O)CC(=O)Nc2nnc(C)s2)cc1,2.1
7,Cc1ccccc1NC(=O)Cc1nc(COC(=O)CNS(=O)(=O)c2cccc(Br)c2)cs1,-6.7
8,CCC(C)Nc1nc(N)c([N+](=O)[O-])c(Nc2ccccc2OC)n1 (stereo not shown),7.54
9,COc1ccc(/C=C2\SC(=S)N(CCC(=O)NC3=NCCS3)C2=O)cc1OC,-1.3
10,C/C(=N\NC(=O)c1nnn(-c2nonc2N)c1CN(C)c1ccccc1)c1ccccc1O,14.6
11,N/C(=N\S(=O)(=O)c1ccc(Cl)s1)c1ccccc1,0.25
12,COc1ccccc1NC(=S)NC(NC(=O)CC(C)C)C(Cl)(Cl)Cl (stereo not shown),17
13,O=C(Nc1ccc(OCC(=O)N2CCOCC2)cc1)c1ccccc1F,10.9
14,C/C(=N\NC(=O)c1cccs1)C(C)(C)C,12.8
15,CN(CC(=O)Nc1ccccc1C(F)(F)F)C(=O)C1CCN(S(=O)(=O)c2ccc3c(c2)OCCO3)CC1,0.631
16,COc1ccccc1-c1coc2c(CN3CCOCC3)c(O)ccc2c1=O,8.86
17,O=c1c2ccccc2nc(/C=C/c2ccccc2)n1CCc1ccccc1,-4.92
18,COc1ccc(N(CC(=O)NC2CCCCC2)C(=O)CNC(=O)c2cccs2)cc1,12.8
19,CC(=O)NC1(c2ccc(F)cc2)CCN(C(=O)Nc2ccc(F)cc2F)CC1,3.08
